# Source: publication PMC4336329 (PLoS ONE, 2015)
# About 14,000 (4.5%) of roughly 310,000 compounds showed an effect of 50% or more. The effect is printed as a negative number. This is one part of the list. Where a SMILES comes first, the peptide text is derived from it. The star is where a group is joined. Boc = CC(C)(C)OC(=O)*; OtBu = CC(C)(C)O*
# Biological target: human ether-à-go-go-related gene (hERG) potassium channel (human, UniProt Q12809)
# Experiment: primary screen, population patch clamp on CHO cells stably expressing hERG
# 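Further: peak tail current of the secondary pulse compared with the same well before compound.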
# human ether-à-go-go-related gene (hERG) potassium channel, sequence (Q12809 whole entry, looked up): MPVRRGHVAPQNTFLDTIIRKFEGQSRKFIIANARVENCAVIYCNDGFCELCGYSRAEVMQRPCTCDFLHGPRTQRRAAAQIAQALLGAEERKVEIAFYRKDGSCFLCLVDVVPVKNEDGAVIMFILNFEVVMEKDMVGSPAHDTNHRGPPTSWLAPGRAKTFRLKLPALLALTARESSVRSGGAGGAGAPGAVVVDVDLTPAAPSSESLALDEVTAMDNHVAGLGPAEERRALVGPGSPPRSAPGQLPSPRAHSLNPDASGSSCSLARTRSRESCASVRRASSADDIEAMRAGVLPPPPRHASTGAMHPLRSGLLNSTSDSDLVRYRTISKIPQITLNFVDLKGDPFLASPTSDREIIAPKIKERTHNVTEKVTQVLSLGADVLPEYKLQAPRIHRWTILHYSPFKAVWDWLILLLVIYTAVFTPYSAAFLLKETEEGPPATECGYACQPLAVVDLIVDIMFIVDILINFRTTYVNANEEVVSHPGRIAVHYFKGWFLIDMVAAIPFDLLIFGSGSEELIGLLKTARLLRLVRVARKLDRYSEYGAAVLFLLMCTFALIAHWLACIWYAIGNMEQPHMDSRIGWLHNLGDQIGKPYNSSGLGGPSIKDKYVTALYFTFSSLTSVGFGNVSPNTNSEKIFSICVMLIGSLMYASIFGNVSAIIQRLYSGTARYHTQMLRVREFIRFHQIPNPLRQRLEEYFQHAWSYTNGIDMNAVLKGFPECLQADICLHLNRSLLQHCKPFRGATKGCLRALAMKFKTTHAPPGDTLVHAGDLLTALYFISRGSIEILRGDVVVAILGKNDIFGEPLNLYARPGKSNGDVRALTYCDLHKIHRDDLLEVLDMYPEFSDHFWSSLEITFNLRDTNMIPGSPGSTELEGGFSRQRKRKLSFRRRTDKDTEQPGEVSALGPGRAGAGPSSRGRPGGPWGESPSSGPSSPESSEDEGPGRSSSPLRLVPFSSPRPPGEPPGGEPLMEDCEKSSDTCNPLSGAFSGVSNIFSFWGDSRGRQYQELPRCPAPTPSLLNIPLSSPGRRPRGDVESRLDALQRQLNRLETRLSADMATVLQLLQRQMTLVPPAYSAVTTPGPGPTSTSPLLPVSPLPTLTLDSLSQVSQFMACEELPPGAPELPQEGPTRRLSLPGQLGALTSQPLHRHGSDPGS
row,SMILES,"hERG current change (%, negative = inhibition) at 10uM [%]"
1,CC(=O)c1c(C)[nH]c(C(=O)CSc2nnc(-c3cccs3)n2Cc2ccccc2)c1C,-25.6
2,CCOC(=O)c1ccc(NC(=O)c2c(NC(=O)CCC(=O)O)sc3c2CCCCC3)cc1,16.9
3,O=C(O)Cc1cccc2ccccc12,16.6
4,C=CCNCCOCCOc1ccccc1-c1ccccc1.O=C(O)C(=O)O,-33.7
5,CCOC(=O)C1=C(C)NC2=C(C(=O)CCC2)C1c1cn(Cc2ccc(Cl)cc2Cl)nc1-c1ccccc1 (centres unmarked),-8.5
6,COc1ccc(-c2cccc(C(=O)NCC(=O)O)c2)cc1,7.91
7,COC(=O)C(Cc1ccc(O)cc1)NC(=O)C(CC(=O)OC(C)(C)C)NC(=O)OC(C)(C)C (centres unmarked) (Boc-Asp(OtBu)-Tyr-OMe; configuration not given here),-3.05
8,Cc1cc(=O)[nH]c2ccc(S(=O)(=O)NCc3ccccc3)cc12,-32.5
9,COc1cc2c(cc1NC(=O)c1cccc([N+](=O)[O-])c1C)oc1ccccc12,-8.76
10,CC1=NN(C(=O)c2cccc(Cn3nc(C)c([N+](=O)[O-])c3C)c2)C(O)(C(F)(F)F)C1 (centres unmarked),0.484
11,CC(C)CCNC(=O)CN1C(=O)CN=C(c2ccccc2)c2ccccc21,-4.29
12,O=C(NCCS(=O)(=O)N1CCCCC1)c1ccccc1,-5.44
13,O=C(Nc1ccccc1)c1ccc(S(=O)(=O)N2CCCC2)cc1,-3.46
14,Cc1ccc(/C=N/NC(=O)c2csc3c2CCCC3)cc1,6.73
15,CCn1ncc(Br)c1C(=O)NC(C)c1ccccc1 (centres unmarked),3.91
16,Cc1cc2cc(C#N)c(N3CCN(S(C)(=O)=O)CC3)nc2cc1C,-7.09
17,CCC(=O)Nc1cccc(NC(=O)c2cccc([N+](=O)[O-])c2)c1,-61.2
18,C=CCn1c(SCCC(=O)O)nnc1-c1cccs1,6.75
19,COc1ccc(C2(C(=O)NC(C)C)CCCC2)cc1OC,2.35
20,C#CCNC(=O)C1=C[C@@H](c2ccc3c(c2)OCO3)[C@H](CCCO)[C@@H](OCC)O1,14
21,CC1CC(C)CN(C(=O)COC(=O)Cc2ccc(Br)cc2)C1 (centres unmarked),16.5
22,O=C(/C=C/c1ccco1)NCC1CCCO1 (centres unmarked),11.5

row,SMILES,"hERG current change (%, negative = inhibition) at 10uM [%]"
1,Cc1c(C)c2ccc(OCC(=O)N3CC[C@@]4(O)CCCC[C@H]4C3)cc2oc1=O,-5.69
2,COc1cc2c(c(OC)c1OC)-c1c(cc(OC)c(OC)c1OC)C[C@H](C)[C@H](C)C2,-71.9
3,CCN(CC)CCCn1c(=S)[nH]c2cc(C(=O)OC)ccc2c1=O,-33
4,Cc1cc(C)c2c(-n3cccc3)c(C(=O)NNS(=O)(=O)c3ccc(Cl)cc3)sc2n1,0.175
5,CCCC(=O)Nc1nnc(SCC(=O)Nc2nc(C)cs2)s1,10.7
6,CCn1cc(C(=O)N2CCc3ccccc32)c(=O)c2cc(S(=O)(=O)N3CCCCCC3)ccc21,-67.1
7,COc1ccccc1NS(=O)(=O)c1cccc(C(=O)NCC(c2cccs2)N2CCOCC2)c1 (centres unmarked),-24.8
8,CCCC(c1nnnn1CCOC)N1CCN(C(=O)c2ccco2)CC1.Cl (centres unmarked),-4.1
9,C/C=C(/C)C(=O)O[C@@H]1[C@H](OC(C)=O)c2c(ccc3ccc(=O)oc23)OC1(C)C,-36
10,CCOC(=O)NC1(C(F)(F)F)NC(=O)N(Cc2ccco2)C1=O (centres unmarked),13
11,COc1ccc(C(C)=O)cc1CC(=O)Nc1cccc(S(=O)(=O)N2CCOCC2)c1,-30.3
12,CCOP(=O)(OCC)C(NC(=O)Nc1ccc(C)c(Cl)c1)c1ccccc1 (centres unmarked),2.29
13,CC[n+]1cc(C)ccc1/C=C/c1ccc(N(C)C)cc1.[I-],-14.6
14,C/C(=N/Nc1ncc(Br)cn1)c1ccc(Br)cc1,1.07
15,CCCc1c(C)nc2c(OC)cccc2c1SCC(=O)O,4.64
16,CN1CCN(CC(=O)Nc2ccccc2[N+](=O)[O-])CC1,-13.2
17,Cc1ccc(SCc2nc(N)nc(Nc3ccccc3C)n2)c(C)c1,15.2
18,Cc1noc(C(=O)NCc2cccnc2)c1Cl,11.2
19,Cc1ccc(S(=O)(=O)Nc2cc(-c3nn(C)c(=O)c4ccccc34)ccc2N2CCOCC2)cc1,-57
20,COc1ccc(C)cc1-n1c(C)cc(C=O)c1C,1.62
21,COc1ccc(NC(=O)c2cc(S(=O)(=O)N3CCCCC3)ccc2OC)cc1,-9.84
22,Cc1cccc(C)c1N1CCN(C(=O)c2ccc3c(c2)OCO3)CC1,-13

row,SMILES,"hERG current change (%, negative = inhibition) at 10uM [%]"
1,CCOC(=O)C1CCCN(c2c(N3CCOCC3)c(=O)c2=O)C1 (centres unmarked),-0.407
2,CC1CC(C)CN(CCCSc2ccccc2)C1.O=C(O)C(=O)O (centres unmarked),-64.3
3,Cc1cc(N(C)C)ccc1N=Nc1ccc(N)cc1,8.74
4,Cc1nc2ccccc2n1CC(=O)OCC(=O)Nc1ccc2c(c1)OCCO2,9.59
5,Cc1cccc(CNc2ccc(C(CC(N)=O)NC(=O)Cc3cccc4ccccc34)cc2[N+](=O)[O-])c1 (centres unmarked),7.02
6,CCOC(=O)CC1C(=O)NCCN1c1nc2ccc(C)cn2c(=O)c1/C=C1\SC(=S)N(CC(C)C)C1=O (centres unmarked),-0.649
7,COC(=O)c1cccc(NC(=O)CN2CCC(NC(=O)c3cc(OC)c(OC)c(OC)c3)CC2)c1,-14
8,COC(CNC(=O)Cc1c(C)nc2c(-c3ccccc3)c(C)nn2c1C)OC,9.32
9,Cc1nnc(SCC(=O)Nc2ccccc2N2CCOCC2)s1,-3.57
10,O=S(=O)(/C=C/c1ccccc1)c1ccccc1,-2.82
11,CSc1nsc(/C=C/Nc2ccc(C)cc2)c1C#N,5.14
12,COc1ccc(C(=O)NCc2ccc3c(c2)OCO3)cc1S(=O)(=O)N(C)Cc1ccccc1,-12.3
13,CCN(CC)C(=O)c1sc2c(c1C)c(=O)n(-c1ccc(C)c(C)c1)c(=O)n2CC(=O)NCC1CCCO1 (centres unmarked),10.7
14,CCCn1c(CCC(=O)O)nc2cc(S(N)(=O)=O)ccc21,14.7
15,CCN(CC(=O)Nc1c(F)cccc1F)C(=O)c1cccc(S(=O)(=O)N2CCCCCC2)c1,-7.77
16,NS(=O)(=O)c1ccc(CCNC(=O)C2CCCCC2)cc1,23.1
17,C=CCN1CCN(C(=O)CCc2ccccc2)CC1,13.8
18,CC(C)NC(=O)NC(=O)COc1ncnc2sccc12,0.886
19,COc1ccc(NC(=S)c2ccncc2)cc1,17.6
20,CC(C)(C)C1CCC(C(=O)Nc2ccccc2N2CCOCC2)CC1 (centres unmarked),-7.43
21,CCn1ncc([N+](=O)[O-])c1C(=O)Nc1ccc(C(=O)N2CCCCC2)cc1,-19.1
22,Cc1ccc(SCc2nc(-c3ccncc3)no2)cc1,-23.6

row,SMILES,"hERG current change (%, negative = inhibition) at 10uM [%]"
1,C=CCCC(=O)Nc1nc(C)c(-c2csc(Nc3cc(OC)ccc3OC)n2)s1,-1.58
2,Cc1cccc(C(=O)OCC(=O)c2c(N)n(CC(C)C)c(=O)n(C)c2=O)c1O,-15.2
3,CCc1ccc(-c2nc(SCC(=O)N(CCOC)c3c(N)n(Cc4ccccc4)c(=O)[nH]c3=O)n[nH]2)cc1,9.53
4,O=C(CCC(=O)N1CCN(c2ccc(F)cc2)CC1)c1ccc(Cl)cc1,-55.8
5,O=C(NCCc1ccc2c(c1)OCO2)C1CCN(S(=O)(=O)c2ccc(Cl)cc2)CC1,-14.7
6,COc1ccc(C(C(=O)NC2CCCC2)N(C(=O)c2ccoc2C)c2ccccc2)cc1 (centres unmarked),-3.9
7,N#Cc1c(-c2ccccc2)ccnc1N1CCOCC1,10.6
8,COCCn1c(C)cc(C(=O)CSc2ccc(NC(C)=O)cc2)c1C,12.4
9,CN(C)c1ccc(/C=C/C(=O)c2cccc(Br)c2)cc1,-9.25
10,CC(C)(O)C#Cc1ccc([C@@H]2C[C@H]3CN(c4ccccc4)C(=O)[C@]34CCCN24)s1,11.3
11,CCCc1cc(=O)[nH]c(SCC(=O)c2c(N)n(C3CC3)c(=O)[nH]c2=O)n1,6.85
12,CC(=O)c1ccc(OCC(O)CN2CCN(CCO)CC2)cc1.Cl (centres unmarked),9.1
13,Cc1ccc(/C=N/n2c(-c3ccccn3)n[nH]c2=S)o1,8.93
14,COc1ccc(N2CCN(C(=O)CSc3nnc4n3C(C)(C)Cc3ccccc3-4)CC2)cc1,-23.8
15,CCN(CC)S(=O)(=O)c1ccc(S(=O)(=O)Nc2cc3c(cc2C(C)=O)OCO3)cc1,2.49
16,CCCCNC(=O)CSc1nc2c(sc(=S)n2-c2cc(Cl)ccc2OC)c(=O)[nH]1,8.53
17,CCN1C(=O)N[C@@H](CCc2ccccc2)C(C(C)=O)=C1C,10.8
18,Cl.c1ccc(-c2csc(=Nc3cccnc3)n2CC2CCCO2)cc1 (centres unmarked),-31.4
19,CN(C)c1ccnc(Oc2ccc(C(C)(C)C)cc2)c1C#N,-33.3
20,COc1cccc(OC)c1OCCCc1c(C)n[nH]c1C,0.765
